PubChem BioAssay AID1345083 (National Center for Advancing Translational Sciences (NCATS), 2018)
Among all 94,000 compounds or so, about 6,200 (6.6%) were called active. Inconclusive results, whose numbers are uncertain, are shown with a selection of clear calls. The call rests on the fitted dose curve; in most records, active means well fitted inhibition curve with a large enough effect; inconclusive means small, poorly fitted or top-dose-only effect; inactive means flat fitted curve, though single readings scatter. Where the call is inconclusive, the potency comes from a doubtful curve fit.

Assay: Cytotoxic Profiling in HEK 293 Cell Line of Diverse Libraries Using Quantitative High-Throughput Screening; further: nearly all actives have a fitted effect of over 60% in size
Details: HEK 293 viability, ATP luminescence (CellTiter-Glo), 48-72 h; activity change, negative = cytotoxicity: at 115 µM (top of the series) unless noted; series mostly up to 115 µM
In short: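 Cells seeded first (HEK 293, 250 cells/well), then compound added by pintool. Incubation ran 48 or 72 hr at 37 degree Celsius. CellTiter-Glo was added and luminescence imaged after 10 min at room temperature.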
On the % scale 0 is the no-effect control and ±100 the full control effect; potency means the concentration at half of the fitted maximal effect; tags describe the fitted curve by direction and shape.

| Compound | Potency | activity change, negative = cytotoxicity |
| --- | --- | --- |
| COc1ccc(C2=NOC3(CCN(Cc4ccccc4)C3)C2)cc1 (stereo not drawn) | inconclusive: 35.5 µM [inhibitor, partial curve, poor fit] |  |
| CC(C)c1ccc(S(=O)(=O)N2[C@@H]3CC[C@H]2CC(NC(=O)c2ccncc2)C3)cc1 (stereo partly drawn) | inconclusive: 56.2 µM [inhibitor, partial curve, poor fit] |  |
| O=C1Nc2ccc(-c3ccsc3)cc2C(=O)N2CC[C@H](NS(=O)(=O)c3cccs3)[C@@H]12 |  | inactive: -3.25% |
| CNC(=O)c1ccc(CN2CCCC(CCc3ccccc3C(F)(F)F)C2)o1 (stereo not drawn) | inconclusive: 44.7 µM [inhibitor, partial curve, poor fit] |  |
| O=C(NCc1cccc(C(F)(F)F)c1)C1CCN(Cc2ccccc2-c2cccnc2)CC1 | inconclusive: 56.2 µM [inhibitor, partial curve, poor fit] |  |
| CCC(C)(C)NC(=O)c1cccc2c1CCN2C(=O)Nc1cccc(C)c1 | inconclusive: 89.1 µM [inhibitor, single point] |  |
| O=C(c1ccc(Cl)cc1)N1CC2(CCCN2Cc2cccnc2)Cc2ccccc21 (stereo not drawn) | inconclusive: 50.1 µM [inhibitor, partial curve, poor fit] |  |
| COc1ccc(CC(=O)N(C)C2CCc3nnc(C)n3CC2)cc1Cl (stereo not drawn) |  | inactive: -4.32% |
| O=C1Nc2ccccc2CN(Cc2ccc(F)cc2)C12CCNCC2 | active: 39.8 µM |  |
| COc1ccccc1CC(=O)N1CCC2(CC1)NC(=O)N(c1ccccc1)N2 | inconclusive: 31.6 µM [inhibitor, full curve] |  |
| CCCCN1C(=O)c2ccccc2C(C(=O)NCCC)C12CCCCC2 (stereo not drawn) | inconclusive: 100 µM [inhibitor, single point] |  |
| Cc1cnc(C2CCC2)n1CC1CCN(C(=O)COCc2ccccc2)C1 (stereo not drawn) |  | inactive: -15.7% |
| OCc1cccc(-c2cc(-c3ccncc3)c3cncn3c2)c1 | active: 25.1 µM |  |
| CCn1nccc1C(=O)N1CCCCC1c1noc(COc2ccc(C)cc2)n1 (stereo not drawn) | inconclusive: 50.1 µM [inhibitor, partial curve, poor fit] |  |
| Cc1ccccc1SC1CCN(c2cc(C3CC(O)C3)ncn2)CC1 (stereo not drawn) | inconclusive: 50.1 µM [inhibitor, partial curve, poor fit] |  |
| COc1ccccc1CN1CCC[C@H]1c1nc(-c2ccc(F)cn2)no1 | active: 17.8 µM |  |
| COCCNc1ncc(-c2ccc(F)cc2)c2c1OCC2 | inconclusive: 56.2 µM [inhibitor, partial curve, poor fit] |  |
| COc1ccc(NC(=O)O[C@@H]2CO[C@H]3[C@@H]2OC[C@@H]3NS(=O)(=O)c2ccc(NC(C)=O)cc2)cc1 |  | inactive: -5.67% |
